# Source: article PMC5836133
# Some of the results follow. At the low end of the ranking the order means little.
# Test system: T1, GST-NbGlk1(82-244)
# T1 sequence: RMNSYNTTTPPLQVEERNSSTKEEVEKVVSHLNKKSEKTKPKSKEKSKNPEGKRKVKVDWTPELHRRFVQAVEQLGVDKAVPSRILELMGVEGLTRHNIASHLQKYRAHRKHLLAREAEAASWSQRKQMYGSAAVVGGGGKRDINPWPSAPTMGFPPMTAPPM
# Assay: protein-binding microarray;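 further: rank-based score ranging −0.5 to +0.5 with E above 0.45 taken as significant binding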
# Details: NbGlk1 is a Golden2-like transcription factor of Nicotiana benthamiana; high values mean tight binding; most listed sequences are background and not binding sites; double strand, one strand shown
row,Sequence,binding signal [E-score]
1,AGTCCATC,-0.272
2,AATTTCGT,0.284
3,AGTATATC,0.188
4,CAAACTTC,-0.142
5,AAGGAATT,0.145
6,AATGGGAC,-0.173
7,ACCGTAAT,0.357
8,ATTGCGGC,0.173
9,AGCCTGTA,-0.113
10,ATTTAGTC,0.0646
11,ACATGACA,0.0202
12,AGGGATTA,0.168
13,CACCACAC,-0.102
14,ACTATCTA,0.0793
15,AGTCACTC,-0.192
16,ACTAAGAG,-0.0811
17,AGGTTTCG,-0.101
18,AGCCCCCG,-0.317
19,ATAACGTA,0.205
20,AACCTGGA,-0.235
21,ACTATAAA,0.145
22,ATAGCGAG,-0.0611
23,AGACGTCT,0.0763
24,AGCTTTTG,-0.0427
25,AAGTAGGA,-0.0543

row,Sequence,binding signal [E-score]
1,AGTGGCTG,-0.123
2,ATCATGTC,0.221
3,ACCCTTGC,-0.134
4,AGATTATC,0.398
5,CAATGTTC,-0.169
6,AGGTTACC,-0.206
7,AGGGACCA,-0.175
8,ATTCTTAG,0.253
9,ACTTCGAC,-0.0959
10,ATAAGATA,0.301
11,ATCACTAG,0.105
12,AACCCGCA,0.0128
13,CAACAACA,-0.105
14,AGTAATCG,0.296
15,ACTTGGGA,0.0331
16,AGGGGGCG,-0.273
17,ATACGTAC,0.164
18,ATCTGGGC,0.168
19,ACGTTAAT,0.0455
20,ATTACTAG,0.207
21,ATTCTAAC,0.138
22,ATTAGTGA,-0.0279
23,AAGCTCAT,-0.231
24,ATGCCTTA,-0.13
25,ATGACTTG,0.0069

row,Sequence,binding signal [E-score]
1,ACGGACAC,-0.132
2,ATTTTATC,0.234
3,CACGCAAA,-0.079
4,ATGTGCGC,0.0151
5,CACAGACA,-0.0348
6,CACCCGGA,-0.0101
7,ATCGGTAG,0.0952
8,ATCAGGCG,0.0622
9,CAATATCA,0.299
10,AGGACAAA,0.0486
11,ACGAGTAA,0.0537
12,AACGACTA,0.0231
13,ACAACACG,-0.0386
14,CAATGTTA,0.0284
15,AACAAGAG,-0.0996
16,AGCGAGAT,0.269
17,AAAAAGGA,0.0743
18,AACGTAGA,0.18
19,ACCACTGC,-0.164
20,AATCTGGA,0.452
21,CAGAAACC,-0.138
22,ATAGAAGA,0.107
23,ACAGCAAA,0.152
24,ACTAGACT,-0.0748
25,ACAGCCTG,-0.241

row,Sequence,binding signal [E-score]
1,ATAGTTGG,-0.119
2,ATAGATAG,0.111
3,ACTACATG,0.0482
4,ACAGCTTC,-0.152
5,AGCACCAT,-0.195
6,AACGAAAA,0.0746
7,AGCGTTTC,-0.0549
8,AATAACGT,0.104
9,ACTACATC,0.0631
10,AACTCCGT,-0.0965
11,ATACTTTG,0.0712
12,AAGTGTAA,0.0974
13,ATAAATAC,0.0649
14,AATTTTGA,0.141
15,AGATGTCG,0.0628
16,ACAATTCT,0.124
17,ATTTCGTC,0.303
18,CAGCGGAC,-0.0728
19,AATTAACT,0.0439
20,ACCCGGGG,-0.111
21,AGTGTCAG,0.00478
22,ACATTACA,0.1
23,AGTAAGTC,-0.171
24,CAATTAGA,0.108
25,ACTAATGG,0.0235

row,Sequence,binding signal [E-score]
1,ATCGTTCA,0.131
2,CACTTACG,0.0455
3,ACGTCGCA,-0.0568
4,ACCCTTAT,-0.149
5,ACTTAATC,0.0719
6,AACCAAGG,-0.143
7,ACGATCCA,0.12
8,CACAAGTG,-0.205
9,CACTACAC,0.0378
10,ATACCTCA,0.0717
11,ACACCACA,0.00957
12,ACCTGTCC,-0.197
13,AGGCGAAA,-0.0654
14,CAAAACGC,-0.0779
15,ACTCCACC,-0.189
16,AACTGCAC,-0.0858
17,ACTTAGCT,-0.123
18,ACAAACAC,0.0713
19,ACCCTATG,-0.143
20,AACGGCAA,0.0308
21,CACTCATA,0.00605
22,ATCCTGGG,0.119
23,AAATTAGT,0.117
24,CAATTTCC,0.106
25,AGTATGGG,-0.00145

row,Sequence,binding signal [E-score]
1,AATTCATA,0.148
2,ATCGGTTG,-0.0354
3,AAAAAAGT,-0.00117
4,AGTGGAAT,0.189
5,AGGACTCG,-0.224
6,AAGTGTCT,-0.0299
7,AGAAACGA,0.0428
8,ACGTCCTC,-0.248
9,ATAGGCCA,-0.173
10,AGTACATC,-0.0227
11,ATCAATGA,0.142
12,ACTTAGTA,-0.0258
13,AGTGATCC,0.0245
14,ATCCAACC,0.155
15,AGAATCAA,0.342
16,AAGCGGCT,-0.31
17,ACTGTAAG,-0.102
18,ATCACCCG,0.0161
19,AATTACAG,0.106
20,CAGCACAC,-0.291
21,CACCCGTC,-0.173
22,AACGTGAA,-0.0439
23,AAGTCCTC,-0.225
24,AAAGGGTA,-0.148
25,AGTGACGA,0.00185

row,Sequence,binding signal [E-score]
1,ATATTTCC,0.369
2,ATCTCCAA,0.342
3,ACGTGCCG,-0.147
4,AACAGGTA,-0.0243
5,ACGACGTA,-0.00586
6,AATAGGGT,-0.133
7,AGACGCAG,-0.154
8,ATGACGAG,-0.102
9,ATTAGTCA,0.0301
10,AGCTCAGC,-0.244
11,ATACAATC,0.274
12,CAAGAATC,0.385
13,AATTGTAT,0.111
14,CAAATTGG,-0.0553
15,CAAAACTC,-0.116
16,ATGTTGGG,-0.0347
17,ACACATTA,0.144
18,AAACTACA,-0.0503
19,AGTTTGTC,-0.107
20,ACGTGCTA,-0.0432
21,ACCCAGAG,0.00787
22,CAATATCC,0.337
23,AAATCGAT,0.336
24,AACCTAAC,-0.037
25,AGCGCCGG,-0.259

row,Sequence,binding signal [E-score]
1,ATGTGGAG,0.0128
2,AGCCCGCC,-0.268
3,AACCGGGT,-0.137
4,AGCAATAG,-0.138
5,AATGATAT,0.224
6,AAGAGGGA,-0.225
7,AGTGAGCC,-0.281
8,CACGCATA,-0.0545
9,ACTAATCA,0.0498
10,AACTAGGT,-0.0661
11,ACCGTCCG,0.0565
12,AGCGTGGC,-0.213
13,AGAGCGAC,-0.188
14,AAATAAAC,0.0819
15,AGAAATGA,-0.0745
16,AATTCCGT,0.185
17,ACAAGTAC,-0.11
18,ACCATCTA,0.00644
19,ACAATCAC,0.186
20,ATAAGCTG,-0.0233
21,AACAGGCC,-0.181
22,AGTCGATA,0.102
23,AGATCTAG,0.349
24,AAGCTGTC,-0.111
25,AATATTAT,0.211

row,Sequence,binding signal [E-score]
1,AGCGATCG,0.204
2,AGGTAAGA,0.0118
3,AAATGAAA,0.182
4,AGCCTGGC,-0.139
5,ACCAGCGT,-0.17
6,ATAACCAT,-0.00598
7,AACCTGCG,-0.239
8,ACTAGCTA,-0.123
9,AGACTGCT,-0.209
10,ACTGCTTG,-0.0604
11,AATGTGCC,-0.122
12,ACTGGTTG,-0.185
13,ACATATGT,-0.0733
14,ACGCCGGC,-0.188
15,ATAGGCGG,-0.0899
16,ACAAGTAG,-0.0386
17,AACGTAAA,0.148
18,ATCTGAAC,0.342
19,ACGTAAAG,0.0508
